Results on 11 compounds are retold here after the supplement of paper PMC4604168 (melanoma cell lines).

Among the test systems are WM115; WM1716; WM1745; WM3526; WM3619; WM451Lu.
Experiment in all cases: cell count relative to DMSO control; melanoma cells; higher = more viable cells
Conditions in all cases: library dose: low library concentration; 72 h

The other results are listed elsewhere or left out. Single values are uncertain, as repeats are few or missing.
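Also: cell number obtained by counting DAPI-stained nuclei in high-throughput microscope images with image analysis software, screen run in 1,536-well plates.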

Regarding `CO[C@@H]1[C@H](N(C)C(=O)c2ccccc2)C[C@H]2O[C@]1(C)n1c3ccccc3c3c4c(c5c6ccccc6n2c5c31)C(=O)NC4` [Midostaurin] + COc1cc(N2CCC(N3CCN(C)CC3)CC2)ccc1Nc1ncc(Cl)c(Nc2ccccc2S(=O)(=O)C(C)C)n1 [NVP-TAE684] (first compound 0.08 µM, partner dose 0.08 µM), the cell count with WM115 is 88.4%; with WM1716, 66.2%; with WM1745 it was 71.1%; with WM3526 it was 93%; with WM3619, 80.2%; with WM451Lu, 98.2%.

Turning to `C=CCn1c(=O)c2cnc(Nc3ccc(N4CCN(C)CC4)cc3)nc2n1-c1cccc(C(C)(C)O)n1` + CCN(CC)CCCCNc1ncc2cc(-c3cc(OC)cc(OC)c3)c(NC(=O)NC(C)(C)C)nc2n1 [PD173074] (first compound 0.02 µM, partner dose 0.1 µM), the cell count in the test with WM115 was 93.6%; in the test with WM1716, 89.3%; in the test with WM1745 it was 73.8%; with WM3526, 71%; in the test with WM3619 it was 62.3%; with WM451Lu, 98%.

On to `Cc1nc(Nc2ncc(C(=O)Nc3c(C)cccc3Cl)s2)cc(N2CCN(CCO)CC2)n1` [dasatanib] + NCC(=O)Nc1ccc(-n2nc(C(F)(F)F)cc2-c2ccc3c(ccc4ccccc43)c2)cc1 [OSU03012] (first compound 0.004 µM, partner dose 1 µM), for which the cell count amounted to 69.2% in the test with WM115; 70.4% in the test on WM1716; 64.8% in the test with WM1745; 45.9% in the test on WM3526; 83.9% in the test on WM3619; 58.4% with WM451Lu.

For the compound `CO[C@@H]1[C@H](N(C)C(=O)c2ccccc2)C[C@H]2O[C@]1(C)n1c3ccccc3c3c4c(c5c6ccccc6n2c5c31)C(=O)NC4` [Midostaurin] + Cn1cncc1[C@@](N)(c1ccc(Cl)cc1)c1ccc2c(c1)c(-c1cccc(Cl)c1)cc(=O)n2C [tipifarnib] (first compound 0.08 µM, partner dose 0.01 µM), the cell count with WM115 is 57.1%; in the test on WM1716, 64.6%; with WM1745, 87.5%; in the test on WM3526 it was 104%; in the test with WM3619 it was 100%; in the test on WM451Lu, 75.1%.

On to `C[C@]1(c2nc3c(C(N)=O)cccc3[nH]2)CCCN1` [Veliparib] + O=C1NC(=O)/C(=C/c2ccc(-c3ccc(F)cc3O)o2)S1 [AS252424] (first compound 1.4 µM, partner dose 1 µM), for which the cell count amounted to 84.2% in the test with WM115; 87% in the test with WM1716; 90.6% with WM1745; 93% in the test on WM3526; 93.3% in the test on WM3619; 93.6% in the test on WM451Lu.

For the compound `CO[C@@H]1[C@H](N(C)C(=O)c2ccccc2)C[C@H]2O[C@]1(C)n1c3ccccc3c3c4c(c5c6ccccc6n2c5c31)C(=O)NC4` [Midostaurin] + COC(=O)c1sccc1S(=O)(=O)Nc1ccc(Nc2ccccc2)cc1OC [GSK0660] (first compound 0.08 µM, partner dose 1 µM), the cell count is 78% in the test with WM115; 80.3% in the test on WM1716; 89.1% with WM1745; 87.1% in the test on WM3526; 73% in the test on WM3619; 98.2% with WM451Lu.

For `C=CCn1c(=O)c2cnc(Nc3ccc(N4CCN(C)CC4)cc3)nc2n1-c1cccc(C(C)(C)O)n1` + NC(=O)Nc1cc(-c2cccc(F)c2)sc1C(=O)N[C@H]1CCCNC1 [AZD7762] (first compound 0.02 µM, partner dose 0.02 µM), the cell count came to 71% in the test on WM115; 72.4% in the test on WM1716; 77.5% in the test on WM1745; 42.4% in the test on WM3526; 26.7% in the test with WM3619; 68.7% in the test on WM451Lu.

With `C[C@]1(c2nc3c(C(N)=O)cccc3[nH]2)CCCN1` [Veliparib] + Oc1nc(-c2ccc(C(F)(F)F)cc2)nc2c1CSCC2 [XAV939] (first compound 1.4 µM, partner dose 2 µM), the cell count turned out to be 89% in the test on WM115; 68.7% with WM1716; 76.2% in the test with WM1745; 93% in the test with WM3526; 81.5% in the test on WM3619; 116% in the test with WM451Lu.

For the compound `C[C@]1(c2nc3c(C(N)=O)cccc3[nH]2)CCCN1` [Veliparib] + CN(C)S(=O)(=O)c1ccc2c(c1)/C(=C/c1cc3c([nH]1)CCCC3)C(=O)N2 [SU6656] (first compound 1.4 µM, partner dose 0.4 µM), the cell count with WM115 came to 77%; in the test on WM1716, 95.2%; in the test with WM1745, 94.8%; in the test with WM3526 it was 101%; in the test with WM3619 it was 119%; in the test with WM451Lu, 110%.

For `OCCn1cc(-c2cnc3nnn(Cc4ccc5ncccc5c4)c3n2)cn1` + CC(C)CCN1c2nc(Nc3cc(F)c(O)c(F)c3)ncc2N(C)C(=O)C1C [BID1870] (first compound 1 µM, partner dose 0.2 µM), the cell count in the test with WM115 amounted to 103%; in the test with WM1716, 94.9%; in the test with WM1745 it was 103%; with WM3526, 75.5%; in the test with WM3619, 97.8%; with WM451Lu, 112%.

In the case of `Cc1nc(Nc2ncc(C(=O)Nc3c(C)cccc3Cl)s2)cc(N2CCN(CCO)CC2)n1` [dasatanib] + C[C@@H]1CCN(C(=O)CC#N)C[C@@H]1N(C)c1ncnc2[nH]ccc12 [CP690550] (first compound 0.004 µM, partner dose 1 µM), the cell count came to 77.4% in the test on WM115; 57.8% in the test on WM1716; 58.7% in the test on WM1745; 94.7% in the test on WM3526; 124% in the test on WM3619; 96.1% with WM451Lu.
